67 compounds from PubChem BioAssay AID1240 (Sanford-Burnham Center for Chemical Genomics, 2008) can be followed below.

Screen size: about 50,000 compounds; about 800 (1.6%) showed an effect of 50% or more. The list shows a part of the results.

For the assay, the target named is Bcl-2-like protein 10 (Homo sapiens) (UniProt Q9HD36). The assay is described as follows: TR3 peptide-Bcl-B binding displacers, biochemical primary FP assay, phenotype converters (AID 1240).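 Further: 0% = Bcl-B with tracer peptide and DMSO and 100% = tracer peptide lacking Bcl-B.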 Conditions: GST-Bcl-B / FITC-TR3 peptide fluorescence polarization; stronger effect = higher value; compound at 3.75 mg/L.
Chain of UniProt Q9HD36 (Q9HD36 whole entry, looked up): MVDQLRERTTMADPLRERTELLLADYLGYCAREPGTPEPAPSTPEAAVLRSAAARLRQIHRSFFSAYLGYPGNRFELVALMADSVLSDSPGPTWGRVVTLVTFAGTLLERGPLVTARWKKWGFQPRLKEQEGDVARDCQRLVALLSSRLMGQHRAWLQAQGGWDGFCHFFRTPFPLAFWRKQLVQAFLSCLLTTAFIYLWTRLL
Turning to `COc1ccccc1C/C(N)=N/OC(=O)COc1cccc(C)c1`, the displacement was 0.4%.

In the case of `O=C(O)c1cc(NC(=O)c2ccccc2-c2ccccc2C(=O)O)cc(C(=O)O)c1`, the displacement stood at 16.3%.

On to `COC(=O)c1sccc1NC(=O)/C=C/c1ccc([N+](=O)[O-])cc1`, for which the displacement was found to be 5.4%.

As for `CCCC1CCc2c(sc(NC(=O)/C=C\C(=O)O)c2C(N)=O)C1` (configuration not stated), the displacement amounted to 10.2%.

With `CCOc1cc(/C=C(\C#N)C(=O)c2ccccc2)ccc1O`, the displacement is -44.7%.

Consider `O=C(Nc1ccc(F)cc1)C1CC1(c1ccccc1)c1ccccc1` (configuration not stated), for which the displacement amounted to 0%.

For `Cc1ccc(S(=O)(=O)Nc2ccc(NC(=O)C3C4C=CC(O4)C3C(=O)O)cc2)cc1` (configuration not stated), the displacement is 8.5%.

As for `CC1=NNC(=O)C1CC(=O)N/N=C/c1ccc(O)cc1` (configuration not stated), the displacement was -5.3%.

Consider `Cc1cc(C)c2oc(-c3ccc(NC(=O)c4cc5ccccc5oc4=O)cc3)nc2c1`, for which the displacement is -3.8%.

`Cc1cc2nc3n(c2cc1C)CCCN3`: the displacement is -8.7%.

Consider `COC(=O)c1cc(-c2ccc(N)cc2)nc2ccccc12`, for which the displacement was -11.6%.

`CCCOC(=O)c1c(-c2ccc(-c3ccccc3)cc2)csc1N`: the displacement is -1.1%.

As to `CCOC(=O)C1=C(C)N=c2s/c(=C\c3cn(C)c4ccccc34)c(=O)n2C1c1cccs1` (configuration not stated), the displacement worked out at 11.5%.

For `CCOC(=O)c1c(NC(=O)c2ccc(N3C(=O)CCC3=O)cc2)sc2c1CCCC2`, the displacement worked out at 2.5%.

As for `O=C(Nc1ccc(Cl)c(Cl)c1)NN1CCOCC1`, the displacement was determined as 2.4%.

As to `COC(=O)c1ccccc1NC(=O)c1ccc[n+]([O-])c1`, the displacement was -4.8%.

In the case of `CCCC(=O)Oc1ccc2c(=O)c(-c3ccccc3OC)coc2c1`, the displacement was found to be 9.6%.

As for `O=S(=O)(c1cccc2cccnc12)N1CCN(Cc2ccc3c(c2)OCO3)CC1`, the displacement turned out to be 10%.

As for `O=C(Cc1cccc2ccccc12)N/N=C/c1ccc(-c2cccc(Cl)c2)o1`, the displacement was -0.4%.

Consider `COc1ccc(/C=N\Nc2nc(NCc3ccco3)nc(Nc3ccc(OC)cc3)n2)cc1`, for which the displacement was -7.7%.

`C[N+]1=C2C=CC=CC=C2SC12C([N+](=O)[O-])=CC(=[N+]([O-])[O-])c1cccnc12` (configuration not stated): the displacement is -3.8%.

As to `COc1cc(NC(=O)COc2ccc(Br)cc2C(C)(C)C)c(OC)cc1Cl`, the displacement was 2%.

`CC(C)CCn1c2ccccc2c2cc(CC(=O)O)ccc21`: the displacement stood at 5.7%.

Consider `Cc1ccc(N(CC(=O)N2CCCCC2)S(=O)(=O)c2ccc(F)cc2)cc1`, for which the displacement amounted to 0.1%.

Regarding `C/C(=N\NC(=O)c1cc(C)[nH]n1)c1ccc(C)cc1`, the displacement is -16.3%.

Regarding `CN=C(Nc1ccccc1)SC1CC(=O)N(c2cccc(OC)c2)C1=O` (configuration not stated), the displacement is -7.9%.

Regarding `O=C1CC2c3ccccc3C1C1C(=O)N(c3cccc(Br)c3)C(=O)C21` (configuration not stated), the displacement is -14.1%.

Take `COc1ccc(-c2cc(C(F)(F)F)n3nc(C(=O)N4CCN(C)CC4)c(Cl)c3n2)cc1`: the displacement is -11.6%.

As for `COc1ccc(N2C(=O)C3C(c4ccccc4C)OC4(C(=O)c5ccccc5C4=O)C3C2=O)cc1` (configuration not stated), the displacement is -4.1%.

As for `CC(C)(C)c1ccc(OCC(=O)N2CCC(Cc3ccccc3)CC2)cc1`, the displacement was determined as 5.3%.

For `C=CCN1C(=O)/C(=C\c2ccc(-c3ccc(C(=O)OCC)cc3)o2)C(=O)NC1=S`, the displacement was -7.9%.

For the compound `O=C1/C(=C\c2cccc(Br)c2)SC(=S)N1CC(=O)N1c2ccccc2Sc2ccccc21`, the displacement was determined as 10.9%.

Consider `Cc1ccc(-c2ncnn2-c2cccc(Cl)c2C)cc1`, for which the displacement is -3.8%.

Turning to `Cc1cccc(N2C(=O)C(O)=C(C(=O)/C=C/c3ccccc3)C2c2ccc(N(C)C)cc2)c1` (configuration not stated), the displacement is -2.2%.

On to `COc1cccc(NC(=O)CN(c2ccc(C)cc2)S(=O)(=O)c2ccc(SC)cc2)c1`, for which the displacement stood at 7.8%.

Consider `O=C(c1cccs1)N1CCN(Cc2cccc(Br)c2)CC1`, for which the displacement was found to be 9.5%.

Turning to `O=C(Nc1cc(C(F)(F)F)cc(C(F)(F)F)c1)c1ccc([N+](=O)[O-])cc1Cl`, the displacement was -9.1%.

As for `O=C(O)c1ccc(NS(=O)(=O)c2cc(C(=O)O)ccc2Br)cc1`, the displacement came out at 1%.

In the case of `COc1cc(C=C2C(=O)NC(=O)NC2=O)ccc1OCCO`, the displacement was -2.4%.

On to `COc1cc(-c2nc3sc4c(c3c(=O)[nH]2)CCCC4)cc([N+](=O)[O-])c1O`, for which the displacement was 9.1%.

Regarding `O=C(c1ccccc1Cl)N1CCN(CCN2C(=O)c3cccc4cccc(c34)C2=O)CC1`, the displacement was -12%.

Take `Cc1ccc(C)c(NCC(=O)Nc2c(C)cccc2C)c1`: the displacement amounted to 2.7%.

As for `CCOc1ccc(C2/C(=C(\O)c3ccccc3)C(=O)C(=O)N2CCCCCC(=O)O)cc1` (configuration not stated), the displacement is -7.7%.

For `O=C(Cc1ccccc1)Nc1ccc(NC(=O)c2ccccc2)c(Br)c1`, the displacement was found to be 8%.

In the case of `CCCCn1c(/N=C/c2cc(Cl)ccc2O)nc2ccccc21`, the displacement came out at 9.1%.

For the compound `O=C(Nc1ccc2nn(-c3ccc(Br)cc3)nc2c1)c1cccnc1`, the displacement is -5.8%.

With `CCOc1ccc(-n2c(O)c(/C=C3\C=Nc4ccccc43)sc2=O)cc1`, the displacement was found to be 3.9%.

As to `Cc1cc(Cl)ccc1OCC(=O)Nc1c(C)ccc2nsnc12`, the displacement amounted to 16.5%.

With `O=c1[nH]c(NNC(=S)Nc2ccccc2)nc2sc3c(c12)CCCC3`, the displacement is -2.4%.

With `CCOC(=O)/C=C/C(=O)Nc1sc(C)c(C)c1C(N)=O`, the displacement was -2%.

Take `O=C(NCCCN1CCOCC1)c1cccc(F)c1`: the displacement is -4.2%.

As to `CC(C)c1ccc(C=Nc2ccc(Nc3ccccc3)cc2)cc1`, the displacement was found to be 28.2%.

For `Cc1ccccc1-c1nc2ccccc2c(=O)n1/N=C/c1ccc([N+](=O)[O-])cc1`, the displacement turned out to be 12.8%.

Turning to `COc1ccc(CCNC(=S)NC(=O)/C=C/c2ccc(C)cc2)cc1OC`, the displacement was -6.7%.

Turning to `Cc1ccccc1C(=O)N1CCN(c2ccccn2)CC1`, the displacement came out at 9.5%.

As for `Cc1ccc(Nc2cc(C)c3ccccc3n2)cc1`, the displacement amounted to 9.6%.

Take `CC1=C(C(=O)OC2CCCCC2)C(c2ccncc2)C2=C(CC(c3ccccc3)CC2=O)N1` (configuration not stated): the displacement is -7.6%.

Turning to `COc1cccc(NC(=O)C2(C)CC3c4ccccc4C2c2ccccc23)c1` (configuration not stated), the displacement is -5.2%.

`Cc1ccc(C)c(NC(=O)CN(c2ccc(C(C)C)cc2)S(=O)(=O)c2ccccc2)c1`: the displacement turned out to be 1.7%.

Take `S=C1NCN(Cc2ccccc2)CN1c1ccccc1`: the displacement was -7.2%.

For `Cc1cccc(NC(=O)c2ccc(S(=O)(=O)N(C)C)cc2)n1`, the displacement came to 3.3%.

Turning to `CC1=C(C(=O)OC2CCCC2)C(c2cccc(Br)c2)C2=C(CCCC2=O)N1` (configuration not stated), the displacement was found to be 3.3%.

Take `CCc1c(O)nc(SCCN(CC)CC)n(-c2ccccc2)c1=O`: the displacement is 1.4%.

Take `Cc1c(C#N)c2ncnc(-c3ccccc3)c2n1-c1ccccc1`: the displacement is 1.2%.

Consider `COc1ccc(/C(O)=C/c2nc3ccccc3[nH]c2=O)cc1`, for which the displacement is 6.8%.

Take `COc1cccc(C2C(C(=O)Nc3ccccc3)=C(C)N=c3s/c(=C\c4ccc(N(C)C)cc4)c(=O)n32)c1` (configuration not stated): the displacement was 73.6%.

For the compound `CCOc1ccccc1N1CCN(C(=O)c2ccco2)CC1`, the displacement is -2.2%.
